Results published in PubChem BioAssay AID485294 (National Center for Advancing Translational Sciences (NCATS), 2010).
The whole screen tested about 370,000 compounds, of which about 150 (0.041%) were called active. The inconclusive results got no clear call from the source; some entries with a clear call stand among them for comparison. The call rests on the fitted dose curve; in most records, active means well fitted inhibition curve with a large enough effect; inconclusive means small, poorly fitted or top-dose-only effect; inactive means flat fitted curve, though single readings scatter. Potencies of inconclusive entries are left out as doubtful fits.

Target: Beta-lactamase (Escherichia coli (strain K12)) (UniProt P00811)
Assay: qHTS Inhibitors of AmpC Beta-Lactamase (assay with detergent); further: nearly all actives have a fitted effect of over 25% in size;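 on activity change, negative = inhibition: 0% = no-compound wells and -100% = no-enzyme wells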
Details: AmpC hydrolysis of nitrocefin, absorbance 480 nm, 0.01% Triton; activity change, negative = inhibition: at 114 µM (top of the series)
Procedure, shortened: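 20 mM phosphate pH 7.0 + 0.01% (detergent screen) or 0.0001% Triton X-100; 5.3 nM AmpC reagent; cpd preinc 15 min RT; nitrocefin (800 uM stock) to start; A480 q20 s × 4 min; Activity was normalised to no-enzyme and no-compound control wells.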
Potency means the concentration at half of the fitted maximal effect; tags describe the fitted curve by direction and shape.

Chain of UniProt P00811 (P00811 whole entry, looked up): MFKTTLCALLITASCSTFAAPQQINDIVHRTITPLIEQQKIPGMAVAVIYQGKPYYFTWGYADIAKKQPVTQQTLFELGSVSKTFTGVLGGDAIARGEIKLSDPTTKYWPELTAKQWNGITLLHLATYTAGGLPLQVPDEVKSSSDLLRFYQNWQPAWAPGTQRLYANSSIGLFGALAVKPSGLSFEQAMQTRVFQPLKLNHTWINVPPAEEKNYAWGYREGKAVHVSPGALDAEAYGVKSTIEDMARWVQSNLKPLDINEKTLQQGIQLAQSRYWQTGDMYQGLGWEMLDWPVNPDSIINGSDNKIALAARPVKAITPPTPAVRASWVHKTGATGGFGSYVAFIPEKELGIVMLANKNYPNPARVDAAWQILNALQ

Structure (SMILES)	Potency	activity change, negative = inhibition
COc1ccccc1Cc1noc(C(C)(C)NC(=O)c2ccccc2)n1	inconclusive [inhibitor, full curve]	–
CC(C)N(C)C1CCN(C(=O)Nc2ccc(Cl)c(Cl)c2)CC1	inconclusive [inhibitor, full curve]	–
O=C(CCNC(=O)Cn1ccc2ccccc2c1=O)NCC1CCCC1c1ccccc1 (stereo not drawn)	–	inactive: 9.61%
O=C(Cn1cc(C(=O)c2cccs2)c2ccccc21)Nc1ccc(Br)cc1	inconclusive [inhibitor, partial curve]	–
O=C1CCSC2(C(=O)N(Cc3ccc(F)cc3)c3ccccc32)N1c1cccc(F)c1 (stereo not drawn)	–	inactive: -2.18%
Cc1ccc(SCC(=O)Nc2ccc3c(c2)C(=O)NC3=O)cc1	inconclusive [inhibitor, full curve]	–
CCCCNc1cc(NC(C)=O)cc2cc(OC)c(OC)cc12	–	inactive: 3.16%
O=C(NC(=S)Nc1ccc2c(c1)C(=O)c1ccccc1C2=O)c1ccc(F)cc1	inconclusive [inhibitor, full curve, poor fit]	–
O=C(NCCc1nc2ccccc2[nH]1)/C(=C/c1ccc2c(c1)OCO2)NC(=O)c1ccccc1	–	inactive: -11.6%
Cc1cc(Nc2c(C)cccc2C)n2nc(C)nc2n1	inconclusive [inhibitor, full curve, poor fit]	–
CSc1cccc(NC(=S)N(CCC(C)C)C2CCN(C(C)=O)CC2)c1	inconclusive [inhibitor, single point]	–
CCN(CC)CCCNC(=O)Cn1cnc2sc(C)c(S(=O)(=O)N3CCC(C)CC3)c2c1=O	inconclusive [inhibitor, full curve, poor fit]	–
Cc1cccc(N(C(=O)Cn2nnc3ccccc32)C(C(=O)NCc2ccco2)c2ccncc2)c1C (stereo not drawn)	inconclusive [inhibitor, partial curve, poor fit]	–
CCOc1cc2[nH]c(=S)n(Cc3ccc(C(=O)NCC(OC)OC)cc3)c(=O)c2cc1OCC	inconclusive [inhibitor, full curve, poor fit]	–
O=C(Oc1cccc2cccnc12)c1ccc2c(c1)OCCO2	inconclusive [inhibitor, full curve, poor fit]	–
CC(=O)NCCOc1cccc(OCCNC(C)=O)c1	inconclusive [inhibitor, full curve]	–
CN1CCN(S(=O)(=O)c2ccc(-c3ccc(S(=O)(=O)N4CCN(C)CC4)cc3)cc2)CC1	inconclusive [inhibitor, full curve]	–
O=C(Cc1ccccc1)Nc1cccc(N2C(=O)C=CC2=O)c1	inconclusive [inhibitor, single point]	–
